# Experimental data as given in the supplement of paper PMC8728848.
# The list shows a part of the results.
# Columns and labels:
# Assay in all cases: glycan array binding signal (z-score within array); higher = stronger binding
# Conditions in all cases: glycan notation: IUPAC condensed, linker removed
# [1] = target: Man(a1-3)[Man(a1-6)]Man(a1-6)[Man(a1-2)Man(a1-3)]Man(b1-4)GlcNAc(b1-4)GlcNAc
# Outline: (§1)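 Arrays were curated from the Consortium for Functional Glycomics database, 3228 in total, and kept only where the protein sequence was available. Binding is expressed as a within-array Z-score. This score was averaged across arrays of the same protein sequence at different concentrations or buffers and across linkers, and negative values can be read as non-binding.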
# [2] = target: Man(a1-3)[Man(a1-6)]Man(a1-6)[Man(a1-3)]Man
# Outline: as §1
# [3] = target: Man(a1-3)[Man(a1-6)]Man(a1-6)[Man(a1-3)]Man(b1-4)GlcNAc(b1-4)GlcNAc
# Outline: as §1
# [4] = target: Man(a1-3)[Man(a1-6)]Man(b1-4)GlcNAc(b1-4)GlcNAc
# Outline: as §1
# [5] = target: Man(a1-3)[Man(a1-6)]Man(b1-4)GlcNAc(b1-4)[Fuc(a1-6)]GlcNAc
# Outline: as §1
# Man(a1-6)Man = target: Man(a1-6)Man
# Outline: as §1
# Man(b1-4)GlcNAc = target: Man(b1-4)GlcNAc
# Outline: as §1
# MurNAc(b1-4)GlcNAc = target: MurNAc(b1-4)GlcNAc
# Outline: as §1
# Neu5Ac(a2-3)Gal = target: Neu5Ac(a2-3)Gal
# Outline: as §1
# [6] = target: Neu5Ac(a2-3)Gal(b1-3)GalNAc
# Outline: as §1
# [7] = target: Neu5Ac(a2-3)Gal(b1-3)GalNAc(b1-3)Gal(a1-4)Gal(b1-4)Glc
# Outline: as §1
# [8] = target: Neu5Ac(a2-3)Gal(b1-3)GalNAc(b1-4)[Neu5Ac(a2-3)]Gal(b1-4)Glc
# Outline: as §1
# [9] = target: Neu5Ac(a2-3)Gal(b1-3)GalNAc(b1-4)[Neu5Ac(a2-8)Neu5Ac(a2-3)]Gal(b1-4)Glc
# Outline: as §1
# [10] = target: Neu5Ac(a2-3)Gal(b1-3)GalNAc6S
# Outline: as §1
# [11] = target: Neu5Ac(a2-3)Gal(b1-3)GlcNAc
# Outline: as §1
# [12] = target: Neu5Ac(a2-3)Gal(b1-3)GlcNAc(b1-2)Man
# Outline: as §1
# [13] = target: Neu5Ac(a2-3)Gal(b1-3)GlcNAc(b1-2)Man(a1-3)[GlcNAc(b1-4)][Neu5Ac(a2-3)Gal(b1-3)GlcNAc(b1-2)Man(a1-6)]Man(b1-4)GlcNAc(b1-4)GlcNAc
# Outline: as §1
# [14] = target: Neu5Ac(a2-3)Gal(b1-3)GlcNAc(b1-2)Man(a1-3)[Neu5Ac(a2-3)Gal(b1-3)GlcNAc(b1-2)Man(a1-6)]Man(b1-4)GlcNAc(b1-4)GlcNAc
# Outline: as §1
# [15] = target: Neu5Ac(a2-3)Gal(b1-3)GlcNAc(b1-3)Gal(b1-3)GlcNAc
# Outline: as §1
# [16] = target: Neu5Ac(a2-3)Gal(b1-3)GlcNAc(b1-3)Gal(b1-4)GlcNAc
# Outline: as §1
# [17] = target: Neu5Ac(a2-3)Gal(b1-3)GlcNAc(b1-3)GalNAc
# Outline: as §1
# [18] = target: Neu5Ac(a2-3)Gal(b1-3)GlcNAc(b1-4)Gal(b1-4)Glc
# Outline: as §1
# [19] = target: Neu5Ac(a2-3)Gal(b1-3)GlcNAc(b1-6)GalNAc
# Outline: as §1
# [20] = target: Neu5Ac(a2-3)Gal(b1-3)GlcNAc6S
# Outline: as §1
# [21] = target: Neu5Ac(a2-3)Gal(b1-3)[Fuc(a1-4)]GlcNAc
# Outline: as §1
# [22] = target: Neu5Ac(a2-3)Gal(b1-3)[Fuc(a1-4)]GlcNAc(b1-3)Gal(b1-3)[Fuc(a1-4)]GlcNAc
# Outline: as §1
# [23] = target: Neu5Ac(a2-3)Gal(b1-3)[Fuc(a1-4)]GlcNAc(b1-3)Gal(b1-4)[Fuc(a1-3)]GlcNAc
# Outline: as §1
# [24] = target: Neu5Ac(a2-3)Gal(b1-3)[GlcNAc(b1-6)]GalNAc
# Outline: as §1
# [25] = target: Neu5Ac(a2-3)Gal(b1-3)[Neu5Ac(a2-6)]GalNAc
# Outline: as §1
# [26] = target: Neu5Ac(a2-3)Gal(b1-3)[Neu5Ac(a2-6)]GlcNAc(b1-3)[Fuc(a1-3)[Gal(b1-4)]GlcNAc(b1-6)]Gal(b1-4)Glc
# Outline: as §1
# [27] = target: Neu5Ac(a2-3)Gal(b1-3)]Neu5Ac(a2-3)Gal(b1-4)]GlcNAc
# Outline: as §1
# Neu5Ac(a2-3)Gal(b1-4)Glc = target: Neu5Ac(a2-3)Gal(b1-4)Glc
# Outline: as §1
# [28] = target: Neu5Ac(a2-3)Gal(b1-4)GlcNAc
# Outline: as §1
# [29] = target: Neu5Ac(a2-3)Gal(b1-4)GlcNAc(b1-2)Man
# Outline: as §1
# [30] = target: Neu5Ac(a2-3)Gal(b1-4)GlcNAc(b1-2)Man(a1-3)[GlcNAc(b1-4)][Neu5Ac(a2-3)Gal(b1-4)GlcNAc(b1-2)Man(a1-6)]Man(b1-4)GlcNAc(b1-4)GlcNAc
# Outline: as §1
# [31] = target: Neu5Ac(a2-3)Gal(b1-4)GlcNAc(b1-2)Man(a1-3)[Neu5Ac(a2-3)Gal(b1-4)GlcNAc(b1-2)Man(a1-6)]Man(b1-4)GlcNAc(b1-4)GlcNAc
# Outline: as §1
# [32] = target: Neu5Ac(a2-3)Gal(b1-4)GlcNAc(b1-2)Man(a1-3)[Neu5Ac(a2-3)Gal(b1-4)GlcNAc(b1-2)Man(a1-6)]Man(b1-4)GlcNAc(b1-4)[Fuc(a1-6)]GlcNAc
# Outline: as §1
# [33] = target: Neu5Ac(a2-3)Gal(b1-4)GlcNAc(b1-2)Man(a1-3)[Neu5Ac(a2-6)Gal(b1-4)GlcNAc(b1-2)Man(a1-6)]Man(b1-4)GlcNAc(b1-4)GlcNAc
# Outline: as §1
binder,measurement,setting,value
"DC-Sign (Homo sapiens), Q9NNX6 (protein) MSDSKEPRLQQLGLLEEEQLRGLGFRQTRGYKSLAGCLGHGPLVLQLLSFTLLAGLLVQVSKVPSSISQEQSRQDAIYQNLTQLKAAVGELSEKSKLQEIYQELTQLKAAVGELPEKSKLQEIYQELTRLKAAVGELPEKSKLQEIYQELTWLKAAVGELPEKSKMQEIYQELTRLKAAVGELPEKSKQQEIYQELTRLKAAVGELPEKSKQQEIYQELTRLKAAVGELPEKSKQQEIYQELTQLKAAVERLCHPCPWEWTFFQGNCYFMSNSQRNWHDSITACKEVGAQLVVIKSAEEQNFLQLQSSRSNRFTWMGLSDLNQEGTWQWVDGSPLLPSFKQYWNRGEPNNVGEEDCAEFSGNGWNDDKCNLAKFWICKKSAASCSRDEEQFLSPAPATPNPPPA",glycan array binding signal (z-score),[1],0.081
same,glycan array binding signal (z-score),[2],-0.129
same,glycan array binding signal (z-score),[3],-0.054
same,glycan array binding signal (z-score),[4],-0.173
same,glycan array binding signal (z-score),[5],-0.063
same,glycan array binding signal (z-score),Man(a1-6)Man,-0.171
same,glycan array binding signal (z-score),Man(b1-4)GlcNAc,-0.196
same,glycan array binding signal (z-score),MurNAc(b1-4)GlcNAc,0.01
same,glycan array binding signal (z-score),Neu5Ac(a2-3)Gal,-0.182
same,glycan array binding signal (z-score),[6],-0.178
same,glycan array binding signal (z-score),[7],-0.188
same,glycan array binding signal (z-score),[8],-0.13
same,glycan array binding signal (z-score),[9],-0.185
same,glycan array binding signal (z-score),[10],-0.091
same,glycan array binding signal (z-score),[11],-0.193
same,glycan array binding signal (z-score),[12],-0.038
same,glycan array binding signal (z-score),[13],-0.003
same,glycan array binding signal (z-score),[14],-0.202
same,glycan array binding signal (z-score),[15],-0.136
same,glycan array binding signal (z-score),[16],-0.193
same,glycan array binding signal (z-score),[17],-0.142
same,glycan array binding signal (z-score),[18],-0.183
same,glycan array binding signal (z-score),[19],-0.177
same,glycan array binding signal (z-score),[20],-0.159
same,glycan array binding signal (z-score),[21],-0.084
same,glycan array binding signal (z-score),[22],1.83
same,glycan array binding signal (z-score),[23],-0.162
same,glycan array binding signal (z-score),[24],0.208
same,glycan array binding signal (z-score),[25],-0.168
same,glycan array binding signal (z-score),[26],-0.203
same,glycan array binding signal (z-score),[27],-0.13
same,glycan array binding signal (z-score),Neu5Ac(a2-3)Gal(b1-4)Glc,-0.109
same,glycan array binding signal (z-score),[28],-0.183
same,glycan array binding signal (z-score),[29],-0.142
same,glycan array binding signal (z-score),[30],-0.118
same,glycan array binding signal (z-score),[31],-0.107
same,glycan array binding signal (z-score),[32],-0.159
same,glycan array binding signal (z-score),[33],-0.196
